Each structure is given as a SMILES string. Screen size: about 48,000 compounds; about 120 (0.25%) were called active. Another 4% or so got no clear call; they are omitted. Calls follow the shape of the dose curve; as a rule, active = well fitted activation curve with a large enough effect; inconclusive = small, poorly fitted or top-dose-only effect, or another doubt; inactive = no such curve, though single readings can be large or run the other way. The list shows a part of the results.

The test is described as follows: Primary qHTS for Identification of Small Molecule Activators of Huntingtin-Antisense Promoter Activity. Also: nearly all actives have a fitted effect of over 55% in size. As to conditions: HEK293 HTT-AS promoter firefly luciferase reporter, 24 h; series mostly up to 57.5 µM; activity change, positive = activation: at the top concentration. In a few lines: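 Firefly luciferase readout (Dual-Glo, 10 min RT) after 24 h, 37 °C compound exposure (final up to 57.5 uM) of HEK293 reporter cells cultured 24 h beforehand; PTC124 at 50 uM final as control inhibitor; activity scaled vehicle 0%, zero RLU -100%.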
On to `O=C(c1ccc(Br)cc1)N(Cc1cccs1)c1ccc(F)cc1`, for which the “activity change, positive = activation” value is inactive: -26.9%.

As for `CN1CCN(C(=O)Cn2ncc3c4ccccc4n(Cc4ccc(F)cc4)c3c2=O)CC1`, the “activity change, positive = activation” value was inactive: -2.46%.

Take `CCOCCn1ccc2c(OCC(=O)Nc3cccc([N+](=O)[O-])c3)cccc2c1=O`: the “activity change, positive = activation” value is inactive: -25%.

Consider `COc1cccc(C(=O)Nc2ccccc2OCc2cc(=O)n3ccccc3n2)c1`, for which the “activity change, positive = activation” value was inactive: -0.225%.

Regarding `Cc1noc(/C=C/c2cccs2)c1S(=O)(=O)N1CCC(C(=O)NCc2ccc(Cl)cc2)CC1`, the “activity change, positive = activation” value was inactive: -27.3%.

Take `Cc1cc(N(CCO)Cc2ccccc2)n2nc(-c3ccc(C(C)(C)C)cc3)nc2n1`: the “activity change, positive = activation” value is inactive: -5.34%.

For the compound `Cc1cccn2c(=O)c(/C=C(\C#N)c3nc4ccccc4s3)c(Oc3ccc(F)cc3)nc12`, the activity change, positive = activation was inactive: 8.26% [at 11.5 µM, percent change from vehicle, -100% = no light].

Consider `COc1ccc(CNC(=O)c2cnc3sc(N4CCCC4)nn3c2=O)c(OC)c1`, for which the “activity change, positive = activation” value was inactive: 1.88%.

Take `CCCCNC(=O)CSc1nc2cc3c(cc2c(=O)n1CCCCCC(=O)NCc1ccc(OC)cc1)OCO3`: the “activity change, positive = activation” value was inactive: -6.49%.

`Cc1ccccc1C(=O)NCCc1sc(-c2ccc(Cl)cc2)nc1C`: the “activity change, positive = activation” value was inactive: 2.17%.

Regarding `COc1ccc(CNC(=O)Cc2csc3nc(-c4ccc(F)cc4)cn23)cc1`, the “activity change, positive = activation” value is inactive: -15.3%.

For the compound `COc1ccc(-c2nc(SCC(=O)NC3CCCC3)c(-c3ccc(C)cc3)[nH]2)cc1OC`, the “activity change, positive = activation” value was inactive: -27.6%.

Consider `CCOc1ccc(NC(=O)C(=O)NCC(c2cccnc2)N2CCc3ccccc32)cc1` (stereo unspecified), for which the “activity change, positive = activation” value was inactive: -61.5%.

Take `CCOC(=O)C1CCCN(S(=O)(=O)c2ccc3c(c2)oc(=O)n3C)C1` (stereo unspecified): the “activity change, positive = activation” value was inactive: -23.3%.

Take `COc1ccc(N(Cc2cccs2)C(=O)Nc2cccc(Cl)c2)cc1`: the “activity change, positive = activation” value is inactive: -20.8%.

`Cc1ccccc1NC(=O)CCN1C(=O)c2ccccc2Sc2ncccc21`: the “activity change, positive = activation” value is inactive: -16.5%.

For the compound `COc1cccc(NC(=O)CCc2c(C)nc3ncnn3c2C)c1`, the “activity change, positive = activation” value was inactive: -7.93%.

As for `COc1ccc(-c2cn3c(n2)sc2cc(C(=O)NCc4cccc(F)c4)ccc23)cc1`, the “activity change, positive = activation” value is inactive: 3.58%.

In the case of `Cc1ccc(NC(=O)Cn2c(=O)n(Cc3ccc4c(c3)OCO4)c(=O)c3ccccc32)cc1`, the “activity change, positive = activation” value was inactive: -19.8%.

With `Cc1ccccc1-c1cc2nccc(-c3cc(Cl)ccc3O)n2n1`, the “activity change, positive = activation” value is inactive: -1.58%.

Take `Cc1ccc(C(=O)c2cn(Cc3ccccc3C)c3nc(C)ccc3c2=O)cc1`: the “activity change, positive = activation” value was inactive: -26.6%.

For the compound `CCCc1cnc2c(c1SCc1cccc(F)c1)c(=O)n(C)c(=O)n2C`, the “activity change, positive = activation” value was inactive: -29.7%.

As for `CCCc1noc(-c2ccc(NCc3ccc(C)cc3)c([N+](=O)[O-])c2)n1`, the “activity change, positive = activation” value was inactive: 2.31%.

Consider `Cc1ccc(NC(=O)CN2C(=O)COc3ccc(S(=O)(=O)NC4CCCC4)cc32)c(Cl)c1`, for which the “activity change, positive = activation” value was inactive: -25.4%.

`Cc1nc(C)c(CCNS(=O)(=O)c2ccc(F)cc2)s1`: the “activity change, positive = activation” value is inactive: -27.8%.

Regarding `CN1C(=O)C2(c3ccccc31)N(c1ccc(Br)cc1)C(=O)CS2(=O)=O` (stereo unspecified), the “activity change, positive = activation” value is inactive: -20.2%.

For the origin of these results see PubChem BioAssay AID1508624 (National Center for Advancing Translational Sciences (NCATS), 2021).
